In PubChem BioAssay AID1460 (National Center for Advancing Translational Sciences (NCATS), 2008):
Among all 270,000 compounds or so, about 5,800 (2.1%) were called active. Inconclusive results, whose numbers are uncertain, are shown with a selection of clear calls. Calls come from the whole dose curve; as a rule, active = well fitted inhibition curve with a large enough effect; inconclusive = small, poorly fitted or top-dose-only effect; inactive = flat fitted curve, though single readings scatter. Where the call is inconclusive, the potency comes from a doubtful curve fit.
% is set by controls: 0 for no effect and ±100 for the full control effect; potency is the fitted concentration of half-maximal effect; tags give direction and shape of the fitted curve.
Note: nearly all actives have a fitted effect of over 55% in size.

Each compound was assayed against Microtubule-associated protein tau (Homo sapiens) (UniProt P10636) (assay: qHTS for Inhibitors of Tau Fibril Formation, Thioflavin T Binding). Settings: recombinant tau K18 P301L (four-repeat tau fragment), heparin-induced fibrillization, ThT fluorescence; series mostly up to 57.4 µM.
UniProt P10636, sequence (P10636 whole entry, looked up, the tested form may be a part): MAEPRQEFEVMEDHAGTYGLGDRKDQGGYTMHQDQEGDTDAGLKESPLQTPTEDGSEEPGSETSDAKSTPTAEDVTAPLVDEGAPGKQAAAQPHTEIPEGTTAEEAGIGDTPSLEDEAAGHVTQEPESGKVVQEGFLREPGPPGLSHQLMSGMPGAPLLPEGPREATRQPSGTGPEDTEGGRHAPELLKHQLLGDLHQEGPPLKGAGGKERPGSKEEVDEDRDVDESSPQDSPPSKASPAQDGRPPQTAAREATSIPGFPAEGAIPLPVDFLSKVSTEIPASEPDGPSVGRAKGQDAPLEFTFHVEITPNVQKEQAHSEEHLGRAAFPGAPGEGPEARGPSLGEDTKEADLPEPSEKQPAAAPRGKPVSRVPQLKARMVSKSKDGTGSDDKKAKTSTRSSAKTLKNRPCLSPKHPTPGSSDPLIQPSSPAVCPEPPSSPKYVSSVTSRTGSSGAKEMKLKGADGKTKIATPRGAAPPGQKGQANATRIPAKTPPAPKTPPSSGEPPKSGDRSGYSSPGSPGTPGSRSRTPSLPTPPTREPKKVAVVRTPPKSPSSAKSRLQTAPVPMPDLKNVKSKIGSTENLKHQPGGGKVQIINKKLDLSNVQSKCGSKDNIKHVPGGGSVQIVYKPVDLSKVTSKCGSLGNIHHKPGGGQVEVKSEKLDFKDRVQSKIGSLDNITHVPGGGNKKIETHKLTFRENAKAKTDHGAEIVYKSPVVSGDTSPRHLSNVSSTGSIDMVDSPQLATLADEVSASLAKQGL
Excerpt: NIH Molecular Libraries Probe Production Network [MLPCN]
NIH Chemical Genomics Center [NCGC]
Assay Provider: Carlo Ballatore, University of Pennsylvania
The microtubule-associated protein tau is an abundant protein in the axons of neurons that stabilizes microtubules. With its ability to modulate microtubule dynamics, tau contributes directly or indirectly, to key structural and regulatory cellular functions. Particularly important is the influence tau exerts on axonal transport, which allows signaling molecules, trophic factors and other essential cellular constituents to travel along the axons. Under pathological conditions, tau becomes sequestered into insoluble aggregates called neurofibrillary tangles. This phenomenon is believed to have pathological consequences by promoting axonal transport deficits that ultimately lead to synaptic dysfunction and neuronal loss. To identify inhibitors of tau aggregation, a heparin-induced tau fibril formation assay was used that employed a recombinantly expressed fragment of tau, K18 (Q242-E372), bearing a P301L mutation (Gustke et al. 1994; Hong et al. 1998). This assay monitors tau fibrillization by Thioflavin T (ThT) fluorescence.
Gustke, N., B. Trinczek, et al. (1994). "Domains of tau protein and interactions with microtubules." Biochemistry 33(32): 9511-22.
Hong, M., V. Zhukareva, et al. (1998).
Li, W. and V. M. Lee (2006).
von Bergen, M., S. Barghorn, et al. (2001). "Mutations of tau protein in frontotemporal dementia promote aggregation of paired helical filaments by enhancing local beta-structure." J Biol Chem 276(51): 48165-74.
NCGC Assay Protocol Summary:
For screening, 2 uL/well human K18 P301L (15 uM unlabeled and 0.24 uM Alexa 594-labeled tau, final concentrations) in reagent buffer (100 mM sodium acetate pH 7) was dispensed into black solid 1536-well plates (Grenier) using a solenoid-based dispenser. Following transfer of 23 nL compound or DMSO vehicle by a pin tool, 2 uL/well heparin (20 uM final concentration) in reagent buffer was added and the plate centrifuged 15 s at 1000 RPM. Plates were incubated 6 hr at 37 C and then 1 uL/well ThT (30 uM final concentration) was added. After a 1 hr ambient incubation, the plates were read by an Envision (Perkin Elmer) to monitor ThT fluorescence (450/8 nm excitation and 510/23 nm emission).
Keywords: NIH Roadmap, MLPCN, MLI, MLSMR, NCGC, qHTS, tau, tauopathies, Alzheimer's disease, fibril, neurodegeneration, aggregation
`CCNC(=S)N(CCc1c(C)[nH]c2ccc(C)cc12)Cc1ccco1` was tested, and the Potency was inconclusive: 17.8 µM [inhibitor, partial curve]. For `COc1ccc(-c2noc(CCC(=O)NC3CCCCC3)n2)cc1OC`, the Potency was “inactive”. In the case of `Cc1ccccc1C(=O)NN1C(=O)CSC1=S`, the Potency is reported as inconclusive: 25.1 µM [inhibitor, partial curve, poor fit]. In the case of `COc1cccc(Nc2ccccc2C(=O)O)c1`, the Potency is reported as “inactive”. In the case of `CC(C)(C)NC(=O)CSc1nc2ccc(NC(=O)CSc3nnc(N)s3)cc2s1`, the Potency is reported as “inactive”. For `CC(C(=O)Nc1ccccc1C(=O)N1CCOCC1)N(c1ccccc1)S(C)(=O)=O` (stereo not given), the Potency was “inactive”. For `COc1ccc(NC(=O)c2cc3c(s2)-c2c(C)cccc2OC3)c(OC)c1`, the Potency was inconclusive: 2.24 µM [inhibitor, full curve]. In the case of `COc1ccc(S(=O)(=O)Nc2nnc(C(C)(C)C)s2)cc1`, the Potency is reported as inconclusive: 31.6 µM [inhibitor, single point]. `COc1ccc(C(=O)NC(=S)Nc2ccc3oc(=O)ccc3c2)cc1` was tested, and the Potency was inconclusive: 0.282 µM [inhibitor, full curve, poor fit]. `COc1cccc(/C=N/NC(=O)c2cc3c(OC)c(OC)ccc3[nH]2)c1OC` was tested, and the Potency was active: 7.94 µM. For `CCCCCCCCCCCCCCCCCC(=O)NCCc1ccc(O)c(O)c1`, the Potency was inconclusive: 0.631 µM [inhibitor, full curve, poor fit]. In the case of `COc1ccc(CCNC(=O)c2cc3c(-c4ccccc4F)nn(C)c3s2)c(OC)c1`, the Potency is reported as inconclusive: 8.91 µM [inhibitor, full curve]. `O=C(NC1CCCCC1NC(=O)c1cccs1)c1cccs1` (stereo not given) was tested, and the Potency was “inactive”. In the case of `O=C1c2ccccc2C(O)(Cc2ccccc2)N1CCCN1CCOCC1` (stereo not given), the Potency is reported as “inactive”. In the case of `Cc1cccc(OCC(=O)O/N=C(\N)c2ccccn2)c1`, the Potency is reported as inconclusive: 28.2 µM [inhibitor, single point]. `CN1CCN(CCC(=O)N2c3ccccc3Sc3ccc(Cl)cc32)CC1` was tested, and the Potency was inconclusive: 39.8 µM [inhibitor, single point]. For `O=c1cc(CO)oc(C(Nc2cccc([N+](=O)[O-])c2)c2ccccn2)c1O` (stereo not given), the Potency was inconclusive: 14.1 µM [inhibitor, partial curve]. For `CCOC(=O)c1c(OCC)[nH]c2c1cc(O)c1ccccc12`, the Potency was active: 14.1 µM. For `CSc1nc2ccc(NS(=O)(=O)c3ccccc3F)cc2s1`, the Potency was “inactive”. `NS(=O)(=O)c1ccc(CCNC(=O)CNS(=O)(=O)c2cccc(Br)c2)cc1` was tested, and the Potency was “inactive”. `O=C(CSC1CC(=O)N(c2ccc(C(=O)O)cc2)C1=O)Nc1ccc2ccccc2c1` (stereo not given) was tested, and the Potency was inconclusive: 14.1 µM [inhibitor, partial curve]. `Fc1ccc(-c2nc(Nc3cccc(Cl)c3)nc3c2COc2ccccc2-3)cc1` was tested, and the Potency was inconclusive: 0.0316 µM [inhibitor, full curve, poor fit]. For `COc1ccc(NC(=O)CN(Cc2ccccc2)S(=O)(=O)c2ccc(C)cc2)cc1Cl`, the Potency was “inactive”. For `CCCCCc1cc(=O)oc2c(C(CCN3CCCCC3)c3cc(OC)c(OC)c(OC)c3)c(OC)cc(OC)c12` (stereo not given), the Potency was “inactive”. `Cc1ccc(S(=O)(=O)NC(CC(=O)N2CCOCC2)c2ccco2)cc1` (stereo not given) was tested, and the Potency was “inactive”. For `CCOc1cc(C2C(C(=O)OC)=C(C)NC3=C2C(=O)c2ccccc23)cc(Cl)c1O` (stereo not given), the Potency was inconclusive: 1.12 µM [inhibitor, full curve]. For `O=C(O)Cc1cc(I)c(Oc2cc(I)c(O)c(I)c2)c(I)c1`, the Potency was “inactive”. `O=C(CN(Cc1ccc2c(c1)OCO2)C(=O)CSc1nc2ccccc2o1)NC1CCCCC1` was tested, and the Potency was “inactive”. For `O=[N+]([O-])c1ccccc1SNc1ccccn1`, the Potency was inconclusive: 31.6 µM [inhibitor, single point]. In the case of `CO[C@H]1COC(=O)[C@H](C)NC(=O)[C@@H](C)COC(=O)[C@H]2CCCN2C(=O)C/C=C\[C@H]1C`, the activity, negative = inhibition is reported as inactive: -12.7% [at 11.5 µM]. In the case of `CCCCCn1c(Sc2nc3ccccc3s2)nc2c1c(=O)[nH]c(=O)n2C`, the Potency is reported as inconclusive: 25.1 µM [inhibitor, single point]. `CC(C)C[C@H](NC(=O)C1OC1C(=O)O)C(=O)NCCCCN=C(N)N` (stereo not given in full) was tested, and the Potency was “inactive”. With `CCOC(=O)c1c(Nc2ccc(C)cc2)nnc(-c2ccccc2)c1-c1ccccc1` the Potency was inconclusive: 3.55 µM [inhibitor, partial curve, poor fit]. With `COc1cccc(N(C(=O)CNC(=O)c2ccco2)C(C(=O)NC2CCCCC2)c2ccncc2)c1` (stereo not given) the Potency was inconclusive: 39.8 µM [inhibitor, single point]. For `Cn1c(=O)n(-c2ccc(F)c(Cl)c2)c(=O)c2sc3ccccc3c21`, the Potency was inconclusive: 22.4 µM [activator, single point]. With `C=CCNc1nc(N2CCCCC2)c(C#N)c2c1CN(Cc1ccccc1)CC2` the Potency was inconclusive: 39.8 µM [inhibitor, single point]. For `COc1ccc(N(Cc2cccs2)C(=O)COc2cccc(Cl)c2)cc1`, the Potency was “inactive”. `CCOC(=O)c1[nH]cnc1N=Nc1c(O)ccc2ccccc12` was tested, and the Potency was inconclusive: 1.41 µM [inhibitor, full curve]. With `CCCN1C(=O)C(O)(C2COC(C)(C)CC2=O)c2ccccc21` (stereo not given) the Potency was “inactive”. With `CCOC(=O)COc1ccc(-c2nnc(-c3ccccc3)o2)cc1` the Potency was inconclusive: 1.58 µM [inhibitor, full curve]. In the case of `CC1=C(C(=O)OC2CCCCCC2)C(c2c(F)cccc2Cl)CC(=O)N1` (stereo not given), the Potency is reported as inconclusive: 28.2 µM [inhibitor, single point]. In the case of `O=C(CC1N=C2c3ccccc3N=C(SCc3ccc(Cl)cc3)N2C1=O)NCc1ccco1` (stereo not given), the Potency is reported as inconclusive: 31.6 µM [inhibitor, single point]. With `COc1ccc(NC(=O)CC2C(=O)N(c3ccc(F)cc3)C(=O)N2Cc2cccnc2)cc1` (stereo not given) the Potency was “inactive”. `CCOc1ccc(/C=c2\sc3nc(-c4ccco4)nn3c2=O)cc1OCC` was tested, and the Potency was inconclusive: 8.91 µM [inhibitor, partial curve]. `CC(/C=C/C=C/c1ccccc1)=N/NC(=O)CNc1ccc(C)cc1` was tested, and the Potency was inconclusive: 5.01 µM [inhibitor, full curve]. With `COc1ccc(NS(=O)(=O)c2ccc(C(=O)N3CCN(Cc4ccccc4)CC3)cc2)cc1` the Potency was “inactive”. `COc1cc(OC)c2c(=O)c(-c3ccccc3)coc2c1` was tested, and the Potency was inconclusive: 1.26 µM [inhibitor, full curve, poor fit]. For `CCSc1nc(O)c(C2OC(=O)c3c2ccc(OC)c3OC)c(=O)n1CC` (stereo not given), the Potency was inconclusive: 17.8 µM [inhibitor, single point]. `CCOC(=O)c1ccccc1NC(=O)CSc1cn(CC(=O)N2CCCCC2)c2ccccc12` was tested, and the Potency was “inactive”. In the case of `NC(=O)c1ccccc1NS(=O)(=O)Cc1ccc(Cl)cc1`, the Potency is reported as “inactive”. `Cn1c(SCc2ccc(Cl)cc2)nnc1-c1ccc2nonc2c1` was tested, and the Potency was “inactive”. `O=C(NCc1ccc(F)cc1)c1cc(-c2cccs2)on1` was tested, and the Potency was “inactive”. With `COc1ccc(COc2ccccc2C(=O)NCc2ccccc2)cc1F` the Potency was “inactive”. With `CC(C)(C)C(=O)Nc1ccccc1C(=O)NCc1ccco1` the Potency was “inactive”. For `CCc1ccc(C(=O)c2cn(CC(=O)Nc3ccc(F)c(F)c3)c3cc(OC)c(OC)cc3c2=O)cc1`, the Potency was inconclusive: 14.1 µM [inhibitor, partial curve]. With `O=C(c1ccccc1F)N1CCN(c2ccc([N+](=O)[O-])c(NCc3cccnc3)c2)CC1` the Potency was active: 15.8 µM. In the case of `CN1CCCN(C(=O)c2ccc(Cl)c(S(=O)(=O)N(C)c3ccccc3)c2)CC1`, the Potency is reported as “inactive”. For `Cc1c(Cl)cccc1NC(=S)NCc1ccco1`, the Potency was “inactive”. In the case of `Cc1ccc(Cl)cc1N1CCN(C(=O)C2CCN(S(=O)(=O)c3c(C)nn(C)c3C)CC2)CC1`, the Potency is reported as “inactive”. For `Cc1nn(-c2ccccc2)c2sc(-c3nnc(SCC(=O)O)o3)cc12`, the Potency was inconclusive: 20 µM [inhibitor, single point]. With `Cc1cc2oc(=O)cc(CN3CCOCC3)c2cc1C` the Potency was “inactive”. In the case of `O=C1CCCC/C1=N\Nc1ccc(OCc2ccccc2)cc1`, the Potency is reported as inconclusive: 2 µM [inhibitor, full curve]. `Cc1c(NC(=O)c2cc(-c3ccc(Cl)s3)nc3ccccc23)c(=O)n(-c2ccccc2)n1C` was tested, and the Potency was inconclusive: 28.2 µM [inhibitor, partial curve]. For `CC(C)CCNC(=O)c1ccc(Cl)c(NC(=O)Cc2ccccc2)c1`, the Potency was “inactive”. In the case of `Cc1c2ccccc2nc2c(F)c(N(C)C)c(F)c(F)c12`, the Potency is reported as inconclusive: 22.4 µM [inhibitor, partial curve]. For `CCOC(=O)CC(=O)CSc1nc2nc(C)cc(C)n2n1`, the Potency was “inactive”. `COC(=O)c1c(NC(=O)Cc2ccccc2)sc2c1C(C(=O)OC)CC2` (stereo not given) was tested, and the Potency was inconclusive: 17.8 µM [inhibitor, partial curve]. In the case of `Cc1cc(C)c(COCc2cc(/C=N/O)c(C)cc2C)cc1/C=N/O`, the Potency is reported as inconclusive: 22.4 µM [inhibitor, partial curve]. In the case of `N#Cc1ccc(Oc2nc(C#N)cc(-c3ccccc3)n2)cc1`, the Potency is reported as “inactive”. In the case of `Cc1ccc(N2CCN(c3ccc(C)cc3)C2c2ccncc2)cc1`, the Potency is reported as inconclusive: 22.4 µM [inhibitor, partial curve]. `CC(C)CCNC(=O)c1cccc(Nc2nc3ccccc3n3nnnc23)c1` was tested, and the Potency was “inactive”. For `Cc1ccc(-n2ncc3c(N4CCCCCC4)ncnc32)cc1`, the Potency was inconclusive: 7.94 µM [inhibitor, partial curve, poor fit]. For `O=C(Nc1ccccc1N1CCCC1)c1cc2ccccc2o1`, the Potency was inconclusive: 10 µM [inhibitor, partial curve]. With `Cc1ncc(N=Nc2ccccc2)c(-c2ccccc2)n1` the Potency was inconclusive: 25.1 µM [inhibitor, partial curve]. `Cc1cc(C)n(-c2ccc(C(=O)Nc3cccc([N+](=O)[O-])c3)cc2)n1` was tested, and the Potency was inconclusive: 10 µM [inhibitor, partial curve, poor fit].
